Screen size: about 310,000 compounds; about 14,000 (4.5%) showed an effect of 50% or more. Effects have a minus sign here. The list shows a part of the results.
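Also: peak tail current of the secondary pulse compared with the same well before compound.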

The target in the experiment is human ether-à-go-go-related gene (hERG) potassium channel (human, UniProt Q12809). Nature of the experiment: primary screen, population patch clamp on CHO cells stably expressing hERG.
Sequence of human ether-à-go-go-related gene (hERG) potassium channel (Q12809 whole entry, looked up): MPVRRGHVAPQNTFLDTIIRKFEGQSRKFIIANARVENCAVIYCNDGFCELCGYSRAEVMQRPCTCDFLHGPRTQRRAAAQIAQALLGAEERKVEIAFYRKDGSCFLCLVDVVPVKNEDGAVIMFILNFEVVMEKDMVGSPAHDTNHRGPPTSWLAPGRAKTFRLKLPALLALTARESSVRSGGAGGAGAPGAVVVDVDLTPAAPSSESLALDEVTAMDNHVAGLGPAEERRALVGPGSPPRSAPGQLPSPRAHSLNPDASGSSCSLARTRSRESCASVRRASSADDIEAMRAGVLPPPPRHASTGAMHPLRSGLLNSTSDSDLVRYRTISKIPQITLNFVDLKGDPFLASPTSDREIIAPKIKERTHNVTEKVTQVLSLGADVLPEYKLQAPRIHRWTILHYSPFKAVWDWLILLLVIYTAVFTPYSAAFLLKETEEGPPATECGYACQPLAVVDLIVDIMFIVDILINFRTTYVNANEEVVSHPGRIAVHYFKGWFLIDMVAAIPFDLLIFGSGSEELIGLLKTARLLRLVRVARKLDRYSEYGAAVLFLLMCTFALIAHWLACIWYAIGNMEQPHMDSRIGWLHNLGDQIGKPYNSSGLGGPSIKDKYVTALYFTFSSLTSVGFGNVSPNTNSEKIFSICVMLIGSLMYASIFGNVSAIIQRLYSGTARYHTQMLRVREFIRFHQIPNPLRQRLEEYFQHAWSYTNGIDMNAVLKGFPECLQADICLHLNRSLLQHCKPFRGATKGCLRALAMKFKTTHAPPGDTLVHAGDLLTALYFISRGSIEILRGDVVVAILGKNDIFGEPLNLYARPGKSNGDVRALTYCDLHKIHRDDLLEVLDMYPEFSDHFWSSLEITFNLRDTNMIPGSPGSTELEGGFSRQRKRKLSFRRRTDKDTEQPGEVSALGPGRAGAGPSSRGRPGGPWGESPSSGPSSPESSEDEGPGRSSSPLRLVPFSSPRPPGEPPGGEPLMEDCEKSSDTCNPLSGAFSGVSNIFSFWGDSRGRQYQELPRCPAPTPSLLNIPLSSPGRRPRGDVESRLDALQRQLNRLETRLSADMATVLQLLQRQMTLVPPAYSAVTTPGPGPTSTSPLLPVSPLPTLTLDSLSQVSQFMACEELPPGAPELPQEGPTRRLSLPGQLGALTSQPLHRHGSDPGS
On to `O=C(COc1ccc(C(=O)c2ccccc2)cc1)NCC1CCCCC1`, for which the “hERG current change (%, negative = inhibition) at 10uM” value was -25.6%.

Turning to `CCSc1nc(NCCN(C)C)c2c3c(sc2n1)COC(C)(CC)C3` (centres unmarked), the “hERG current change (%, negative = inhibition) at 10uM” value is -22.8%.

For the compound `CC(=O)N1CCN(c2ccc(NC(=O)c3ccccc3C)cc2)CC1`, the “hERG current change (%, negative = inhibition) at 10uM” value is -0.597%.

For `CCOc1ccc(S(=O)(=O)NCCC(=O)N2CCCC(C)C2)cc1` (centres unmarked), the “hERG current change (%, negative = inhibition) at 10uM” value is on record as -23.7%.

For `Cc1cc(C)cc(NC(=O)CSc2nc(N)c(NC(=O)c3cccs3)c(=O)[nH]2)c1`, the “hERG current change (%, negative = inhibition) at 10uM” value stood at 20%.

`Cc1cccc(C(=O)OCC(=O)Nc2ccc3c(c2)OCCO3)c1`: the “hERG current change (%, negative = inhibition) at 10uM” value is -0.669%.

For the compound `CC1CN(c2ncnc3c2cnn3-c2ccc(Cl)cc2)CC(C)O1` (centres unmarked), the “hERG current change (%, negative = inhibition) at 10uM” value is on record as 0.749%.

As for `CCN(Cc1ccccc1)C(=O)c1cc(S(=O)(=O)N2CCOCC2)cn1C`, the “hERG current change (%, negative = inhibition) at 10uM” value was -0.0169%.

For the compound `COC(=O)c1ccc(CSc2nnc(CS(=O)Cc3ccc(Br)cc3)n2-c2ccccc2)cc1` (centres unmarked), the “hERG current change (%, negative = inhibition) at 10uM” value is listed as -12%.

For the compound `COC(=O)c1ccc(CSc2nnc(NC(=O)c3cc4c(s3)CCCC4)s2)cc1`, the “hERG current change (%, negative = inhibition) at 10uM” value is listed as 0.385%.

As to `CCCn1c(=N)n(CC(=O)c2cccs2)c2ccccc21`, the “hERG current change (%, negative = inhibition) at 10uM” value was -22%.

Consider `COc1cc(-c2nc3ccccn3c2NCc2ccccc2)ccc1SC1CCCCC1.O=C(O)C(F)(F)F`, for which the “hERG current change (%, negative = inhibition) at 10uM” value amounted to 25.6%.

As to `COc1ccc(N2C(=O)NC(NC(=O)c3cccnc3)(C(F)(F)F)C2=O)cc1` (centres unmarked), the “hERG current change (%, negative = inhibition) at 10uM” value came to 39.4%.

With `Cn1c(C2=C(O)CN(c3ccc4c(c3)OCCO4)C2=N)nc2ccccc21`, the “hERG current change (%, negative = inhibition) at 10uM” value was -20.1%.

Regarding `CCOC(=O)CNC(=O)CSc1nccn1Cc1ccco1`, the “hERG current change (%, negative = inhibition) at 10uM” value was 4.11%.

For `COc1cc(C)c(NC(=O)C2CCN(S(=O)(=O)c3cccs3)CC2)cc1OC`, the “hERG current change (%, negative = inhibition) at 10uM” value is -12.2%.

As to `O=C(NC(=S)N1CCc2ccccc21)c1ccccc1`, the “hERG current change (%, negative = inhibition) at 10uM” value is reported as 7.36%.

Consider `Cc1ccc(-n2c(C)nnc2SCC(=O)N(C)C2CCS(=O)(=O)C2)cc1` (centres unmarked), for which the “hERG current change (%, negative = inhibition) at 10uM” value is 12.9%.

As for `O=C(CSc1nnnn1-c1ccc(Cl)cc1)NNC(=O)c1ccc([N+](=O)[O-])cc1`, the “hERG current change (%, negative = inhibition) at 10uM” value was -23.2%.

On to `CCN1C(=O)c2cccc3c(NC(=O)c4ccc(S(=O)(=O)N(C)C)cc4)ccc1c23`, for which the “hERG current change (%, negative = inhibition) at 10uM” value is on record as -15.4%.

`COc1ccc(OC)c2c(C)cc(N3CCCN(C)CC3)nc12`: the “hERG current change (%, negative = inhibition) at 10uM” value stood at 1.33%.

Turning to `Cc1cc(C)cc(C(=O)NCC(=O)NCc2ccc(S(N)(=O)=O)cc2)c1`, the “hERG current change (%, negative = inhibition) at 10uM” value is listed as 18%.

For `CSc1sc(-c2ccnc(SCCS(C)(=O)=O)n2)c(-c2ccccc2)c1C#N`, the “hERG current change (%, negative = inhibition) at 10uM” value is listed as -8.75%.

The values are drawn from PMC4336329 (PLoS ONE, 2015).
